Source: patent publication US20250270339A1 (Alector, published 2025)

T1: Cyno TfR ECD Avi-His (cynomolgus macaque, UniProt Q5RDH6 89-760 (Pongo abelii entry), biotin on the Avi tag (BirA) where captured on streptavidin)
T1 construct: also called Cyno TfR Avi-His; cyno TfR Avi-His
T1 chain: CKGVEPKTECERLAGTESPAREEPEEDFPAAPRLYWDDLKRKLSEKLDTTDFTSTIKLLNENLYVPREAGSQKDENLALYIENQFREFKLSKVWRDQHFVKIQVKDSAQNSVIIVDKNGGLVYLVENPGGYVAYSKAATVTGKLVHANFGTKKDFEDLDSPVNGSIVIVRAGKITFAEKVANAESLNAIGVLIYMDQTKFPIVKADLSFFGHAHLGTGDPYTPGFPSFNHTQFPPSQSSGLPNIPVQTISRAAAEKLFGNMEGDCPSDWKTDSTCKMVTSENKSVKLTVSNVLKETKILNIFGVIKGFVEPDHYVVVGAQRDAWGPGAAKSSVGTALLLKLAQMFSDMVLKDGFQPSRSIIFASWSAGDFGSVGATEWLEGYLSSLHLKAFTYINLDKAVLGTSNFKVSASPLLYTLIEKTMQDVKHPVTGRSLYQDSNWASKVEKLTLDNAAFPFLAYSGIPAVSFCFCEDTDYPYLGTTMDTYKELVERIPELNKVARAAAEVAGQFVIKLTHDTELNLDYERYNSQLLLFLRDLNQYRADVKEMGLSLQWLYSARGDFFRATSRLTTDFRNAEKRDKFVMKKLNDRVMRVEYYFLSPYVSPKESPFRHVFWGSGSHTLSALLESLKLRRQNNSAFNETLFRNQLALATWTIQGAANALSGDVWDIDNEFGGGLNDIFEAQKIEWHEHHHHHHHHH

T2: huTfR Apical Domain-Avi-His (human, biotin on the Avi tag (BirA) where captured on streptavidin)
T2 construct: also called huTfR apical Avi-His; hTfR Apical
T2 chain: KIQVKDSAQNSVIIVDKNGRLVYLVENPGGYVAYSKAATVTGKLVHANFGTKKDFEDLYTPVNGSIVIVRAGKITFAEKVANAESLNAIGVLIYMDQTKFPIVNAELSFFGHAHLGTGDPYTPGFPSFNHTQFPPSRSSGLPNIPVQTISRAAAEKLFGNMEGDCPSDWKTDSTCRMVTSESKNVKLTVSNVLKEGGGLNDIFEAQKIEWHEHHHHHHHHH

B1: TfR28 2+1 anti-TfR bispecific antibody (bispecific antibody, human IgG1, kappa)
heavy 1: EVRLLESGGGLVQPGGSLRLSCAASGFTFSNYAMGWVRQAPGKGLEWVSAISGSGGSTYYADSVKGRFTTSRDDSKNALYLQMNSLRAEDTAVYYCARGGPGWYAADVWGQGTTVTVSSASTKGPSVFPLAPSSKSTSGGTAALGCLVKDYFPEPVTVSWNSGALTSGVHTFPAVLQSSGLYSLSSVVTVPSSSLGTQTYICNVNHKPSNTKVDKKV[here human IgG1 Fc with changes without letters]GGGGSGGGGSGGGGSDVQLQESGPGLVKPSQSLSLTCTVTGYSITSDYAWNWIRQFPGNKLEWMGYISYSGSTSYNPSLRSRISITRDTSKNQFFLQLNSVTTEDTATYYCAIRGYRYEEDYWGQGTTLTVSSGGSEGKSSGSGSESKSTGGSQIVLTQSPAIMSASPREKVTMTCSASSSISSMHWYQQKPGTSPKRWIYDTSKLASGVPARFSGSGSGTSYSLTISSMEAEDAATYYCHQRSSYPWTFGGGTKLEIK
heavy 2: EVRLLESGGGLVQPGGSLRLSCAASGFTFSNYAMGWVRQAPGKGLEWVSAISGSGGSTYYADSVKGRFTTSRDDSKNALYLQMNSLRAEDTAVYYCARGGPGWYAADVWGQGTTVTVSS[here human IgG1 constant region with changes without letters]
light: DIQMTQSPSSLSASVGDRVTITCRASQSISSYLNWYQQKPGKAPKLLIYAASSLQSGVPSRFSGSGSGTDFTLTISSLQPEDFATYYCQQADLPAFAFGGGTKVEIKRTVAAPSVFIFPPSDEQLKSGTASVVCLLNNFYPREAKVQWKVDNALQSGNSQESVTEQDSKDSTYSLSSTLTLSKADYEKHKVYACEVTHQGLSSPVTKSFNRGEC
notes: 2+1
B2: TfR31 2+1 anti-TfR bispecific antibody (bispecific antibody, human IgG1, kappa)
heavy 1: EVRLLESGGGLVQPGGSLRLSCAASGFTFSNYAMGWVRQAPGKGLEWVSAISGSGGSTYYADSVKGRFTTSRDDSKNALYLQMNSLRAEDTAVYYCARGGPGWYAADVWGQGTTVTVSSASTKGPSVFPLAPSSKSTSGGTAALGCLVKDYFPEPVTVSWNSGALTSGVHTFPAVLQSSGLYSLSSVVTVPSSSLGTQTYICNVNHKPSNTKVDKKV[here human IgG1 Fc with changes without letters]GGGGSGGGGSGGGGSDVQLQESGPGLVKPSQSLSLTCTVTGYSITSDYAWNWIRQFPGNKLEWMGYISYSGRTSYNPSLKSRISFTRDTSKNQFFLQLNSVTTEDTATYYCAGWGYRYLEDYWGQGTSVTVSSGGSEGKSSGSGSESKSTGGSQIVLTQSPAIMSASPGEKVTMTCSASSSISSMHWYQLKPGTSPKKWIYDTSKLASGVPARFSGSGSGTSYSLTISSMEAEDAATYYCHQRSSYPWTFGGGTKLEIK
heavy 2: EVRLLESGGGLVQPGGSLRLSCAASGFTFSNYAMGWVRQAPGKGLEWVSAISGSGGSTYYADSVKGRFTTSRDDSKNALYLQMNSLRAEDTAVYYCARGGPGWYAADVWGQGTTVTVSS[here human IgG1 constant region with changes without letters]
light: B1 light
notes: 2+1
B3: TfR20 2+1 anti-TfR bispecific antibody (bispecific antibody, human IgG1, kappa)
heavy 1: EVRLLESGGGLVQPGGSLRLSCAASGFTFSNYAMGWVRQAPGKGLEWVSAISGSGGSTYYADSVKGRFTTSRDDSKNALYLQMNSLRAEDTAVYYCARGGPGWYAADVWGQGTTVTVSSASTKGPSVFPLAPSSKSTSGGTAALGCLVKDYFPEPVTVSWNSGALTSGVHTFPAVLQSSGLYSLSSVVTVPSSSLGTQTYICNVNHKPSNTKVDKKV[here human IgG1 Fc with changes without letters]GGGGSGGGGSGGGGSDVQLQESGPGLVKPSQSLSLTCTVTGYSITSDHAWNWIRQFPGNKLEWMGYISYSGSSSYNPSLKSRISITRDTSKNQFFLQLNSVTTEDTATYYCARSGWGMDYWGQGTSVTVSSGGSEGKSSGSGSESKSTGGSDIQMTQSPASLSASVGETVTITCRASEYINSYLAWYQQKQGKSPQLLVFKEKTLAEGVPSRFSGSGSGTQFSLKINSLQPEDFGSYYCQHHYGNPWTFGGGTKLEIK
heavy 2: EVRLLESGGGLVQPGGSLRLSCAASGFTFSNYAMGWVRQAPGKGLEWVSAISGSGGSTYYADSVKGRFTTSRDDSKNALYLQMNSLRAEDTAVYYCARGGPGWYAADVWGQGTTVTVSS[here human IgG1 constant region with changes without letters]
light: B1 light
notes: 2+1
B4: TfR21 2+1 anti-TfR bispecific antibody (bispecific antibody, human IgG1, kappa)
heavy 1: EVRLLESGGGLVQPGGSLRLSCAASGFTFSNYAMGWVRQAPGKGLEWVSAISGSGGSTYYADSVKGRFTTSRDDSKNALYLQMNSLRAEDTAVYYCARGGPGWYAADVWGQGTTVTVSSASTKGPSVFPLAPSSKSTSGGTAALGCLVKDYFPEPVTVSWNSGALTSGVHTFPAVLQSSGLYSLSSVVTVPSSSLGTQTYICNVNHKPSNTKVDKKV[here human IgG1 Fc with changes without letters]GGGGSGGGGSGGGGSQVQLQQPGSELVRPGASVKLSCKASGYTFTSYWTHWVKQRPGQGLEWIGNIYPGSGSSNYDEKFKSKATLTVDTSSSTAYMQLSSLTSEDSAVYFCTRSSYYGNFDTMDNWGQGTSVTVSSGGSEGKSSGSGSESKSTGGSDIQMTQSPASLSASVGETVTITCRASEYINSYLAWYQQKQGKSPQLLVFKEKTLAEGVPSRFSGSGSGTQFSLKINSLQPEDFGSYYCQHHYGNPWTFGGGTKLEIK
heavy 2: EVRLLESGGGLVQPGGSLRLSCAASGFTFSNYAMGWVRQAPGKGLEWVSAISGSGGSTYYADSVKGRFTTSRDDSKNALYLQMNSLRAEDTAVYYCARGGPGWYAADVWGQGTTVTVSS[here human IgG1 constant region with changes without letters]
light: B1 light
notes: 2+1

Experiments:
[1] = target: T3, Full length human TfR on CHO cells (human, UniProt P02786); test: FACS MFI
T3 construct: also called CHO + huTfR; CHO + hTfR
T3 sequence (P02786 whole entry): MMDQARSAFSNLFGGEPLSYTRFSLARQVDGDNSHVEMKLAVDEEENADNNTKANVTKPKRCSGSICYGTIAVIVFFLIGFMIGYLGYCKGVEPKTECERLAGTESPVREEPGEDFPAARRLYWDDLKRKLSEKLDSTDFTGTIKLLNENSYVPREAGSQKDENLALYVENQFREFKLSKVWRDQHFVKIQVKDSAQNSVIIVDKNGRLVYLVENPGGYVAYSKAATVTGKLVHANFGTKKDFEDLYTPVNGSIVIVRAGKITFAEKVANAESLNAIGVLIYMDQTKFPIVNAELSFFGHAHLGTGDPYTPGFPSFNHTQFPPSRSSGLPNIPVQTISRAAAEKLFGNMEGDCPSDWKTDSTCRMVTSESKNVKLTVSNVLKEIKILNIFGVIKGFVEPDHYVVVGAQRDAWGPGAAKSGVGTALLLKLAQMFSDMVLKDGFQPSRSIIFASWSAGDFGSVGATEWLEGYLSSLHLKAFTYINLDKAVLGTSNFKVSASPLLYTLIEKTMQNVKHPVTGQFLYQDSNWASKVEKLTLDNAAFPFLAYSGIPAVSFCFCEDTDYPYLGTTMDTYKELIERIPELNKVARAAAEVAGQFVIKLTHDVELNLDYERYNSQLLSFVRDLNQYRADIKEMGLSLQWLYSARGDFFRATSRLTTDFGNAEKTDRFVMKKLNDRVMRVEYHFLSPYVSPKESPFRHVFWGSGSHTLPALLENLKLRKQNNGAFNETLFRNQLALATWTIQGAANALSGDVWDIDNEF

Cyno TfR ECD Avi-His = target: T1, Cyno TfR ECD Avi-His; test: ELISA OD450
[2] = target: T4, Mouse TfR (muTfR) ECD Avi-His (mouse, UniProt Q62351, biotin on the Avi tag (BirA) where captured on streptavidin); test: ELISA OD450
T4 construct: also called MuTfR Avi-His

[3] = target: T2, huTfR Apical Domain-Avi-His; test: ELISA OD450

| Binder | fold over CHO parental [1] [fold] | fold over isotype control (Cyno TfR ECD Avi-His) [fold] | fold over isotype control [2] [fold] | fold over isotype control [3] [fold] |
| --- | --- | --- | --- | --- |
| B1 | 438 | 1 | 1 | 39 |
| B2 | 383 | 5 | 1 | 41 |
| B3 | 65 | 1 | 2 | 1 |
| B4 | 2 | 1 | 1 | 1 |
